Data: PubChem BioAssay (NCI)
Several values for one entry are separate records, joined by “and”; a condition that tells them apart may be missing. Equal entries are not always repeated.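 Test compounds were applied to cells in 96-well plates for 48 hours at 5 doses. GI50 = concentration required for 50% inhibition of growth. TGI denotes the concentration required for complete inhibition of growth.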

System: NCI-H322M lung
Experiment: NCI tumour cell line growth inhibition, 48 h

Structure (SMILES) | TGI | GI50
O=S(=O)(O)c1cc(N=Nc2c(O)ccc3ccccc23)ccc1/C=C/c1ccc(N=Nc2c(O)ccc3ccccc23)cc1S(=O)(=O)O | > 100 µM | –
CCOC(=O)c1[nH]c(-c2[nH]c(-c3[nH]c(-c4[nH]c(C(=O)OCC)c(C)c4C(=O)OCC)c(C(=O)OCC)c3C)c(C)c2C(=O)OCC)c(C(=O)OCC)c1C | > 100 µM | –
COc1ccc2cc(/C=C/C(=O)c3ccc(Cl)cc3Cl)ccc2c1 | > 100 µM | 90.8 µM
O=C(/C=C/c1ccc(-c2ccccc2)cc1)NCc1ccc(C(=O)NCc2ccccc2)cc1 | > 100 µM | –
O=C(O)CCC(=O)c1ccc2c(c1)C(C(=O)O)CC2 (centres undefined) | > 100 µM | –
NC(=O)N/N=C(/CC1C(=O)Oc2ccccc21)c1ccccc1O (centres undefined) | > 100 µM | –
CN(C)c1ccc(/C=C2\N=C(NNc3ccccc3)NC2=O)cc1 | > 100 µM | –
c1cc2c(cc1NC1=NCCO1)OCO2 | > 100 µM | –
O=C1CC2C(=O)c3ccccc3CC2c2ccccc21 (centres undefined) | > 100 µM | –
COc1cc2c(c(OC)c1OC)-c1ncc3c(OC)c(OC)c(OC)cc3c1C2 | 56.1 µM | 17.6 µM
Cc1cc2/c(=C\c3ccc(N(C)C)cc3)c3ccccc3n2[n+]1C | 5.2 µM | –
COc1cc2nc(SCc3cc(OC)c(OC)c(OC)c3)n(Cc3ccccc3)c(=O)c2cc1OC | > 100 µM | 7.3 µM
CC(=N\N)/C(C)=N/N=C(C)/C(C)=N/N | > 100 µM | –
CCN(CC)CCCNc1ccc2nc(C)n3c4ccc(O)cc4c(=O)c1c23 | 17 µM | –
Cn1c(-c2c(N)n(Nc3cccc(Cl)c3)c3nc(C#N)c(C#N)nc23)nc2ccccc21 | 20.4 µM | 9.62 µM
COc1ccc(N=NC(C(=O)c2ccccc2)C(=O)c2ccccc2)cc1 | 75.8 µM | –
COc1cc2c(cc1OC)C(=O)N(c1ccc(O)cc1)C2=O | > 100 µM | –
CCCCCCCCCCCCCCCCCC1=NC(C)(C)CN1CC(C)O (centres undefined) | 26.1 µM | 13 µM
Cc1ccccc1OC(C)C(=O)NN1C(=O)CSC1c1ccc(Cl)cc1 (centres undefined) | 60.3 µM | –
CCOC(=O)c1nnsc1N/N=C\c1ccc([N+](=O)[O-])cc1 | > 100 µM | –
CC(C)c1c(-c2ccccc2)nc2c(C#N)c[nH]n2c1=O | > 100 µM | 33.8 µM
COc1ccc(-c2ccncc2)cc1C(N)=O | > 25 µM | > 25 µM
COc1ccc(-n2[nH]nc(C(N)=O)c2=O)cc1 | > 100 µM | –
O=C(c1nc2ccc([N+](=O)[O-])cc2[nH]c1=O)C(O)c1ccc2c(c1)OCO2 (centres undefined) | > 100 µM | –
[C](#Cc1ccccc1)[Hg][C]#Cc1ccccc1 | > 100 µM | > 100 µM
CN(C)c1ccc(C=NCC2CCCN3CCCCC23)cc1 (centres undefined) | > 100 µM | –

Structure (SMILES) | TGI | GI50
O=C(/C=C/c1ccccc1)C(Br)C(Br)c1ccccc1 (centres undefined) | 24.8 µM | 12.3 µM
COc1ccc2c(=O)cc(-c3ccccc3)[nH]c2c1 | > 100 µM | 0.463 µM
O=c1/c(=C/c2ccccc2[N+](=O)[O-])sc2nc3ccccc3n12 | > 46.4 µM | –
COc1cccc(/C(C#N)=C/c2nc3c(N4CCOCC4)nc(Cl)nc3n2C)c1 | 3.9 µM | 1.71 µM
O=C(Cc1nc2ccccc2c(=O)n1-c1ccccc1Cl)c1ccncc1 | > 100 µM | –
O=C(N/N=C/c1cc(Cl)cc(Cl)c1[O-])c1ccccc1O.O=C(N/N=C/c1cc(Cl)cc(Cl)c1[O-])c1ccccc1O.[Co+2] | 16 µM | 0.861 µM
Cn1c(C(=O)c2ccncc2)cc2ccccc21 | > 100 µM | > 100 µM
Cc1ccc(NC=O)c(-c2c(N)[nH]c(=S)[nH]c2=O)c1 | > 100 µM | –
COC(=O)/C=C(C)/C=C/C1OC(C)OCC1O (centres undefined) | > 100 µM | –
C/C(=N\N=C(\N)SB(F)F)c1ccc2ccccc2c1 | > 100 µM | –
CC(C)(C)OC(=O)NC1CC2(C=C(Br)C(=O)C(Br)=C2)OC1=O (centres undefined) | > 95.5 µM | –
NC(N)=NC(N)=Nc1ccc(S(=O)(=O)O)cc1 | > 100 µM | –
COc1cc(OC)c(C(=O)/C=C/c2cc3c(cc2OCc2ccccc2)OC(C)(C)CC3)cc1CC=C(C)C | 21.9 µM | 5.73 µM
CN(C(=O)Cc1ccccc1)n1cnn(CC(=O)OC(C)(C)C)c1=S | > 10 µM | –
O=C(NOC[C@H](O)CO)c1ccc(F)c(F)c1Nc1ccc(I)cc1F | > 100 µM | 0.178 µM and 0.0663 µM
CN(C)CCNC(=O)c1ccc(NCCCN(C)CCCNc2ccc(C(=O)NCCN(C)C)c3[nH]c4ccccc4c(=O)c23)c2c(=O)c3ccccc3[nH]c12 | 0.436 µM | –
CCOC(=O)C1=C(Nc2ccc(Cl)cc2Cl)OCC1=O | > 100 µM | –
CN1C/C(=C\c2cccs2)C(O)/C(=C/c2cccs2)C1 (centres undefined) | > 100 µM | –
COC(=O)C1C(O)CCC2CN3CCc4c([nH]c5ccccc45)C3CC21 (centres undefined) | > 100 µM | –
CCC[CH2][Sn]([Cl])([Cl])[CH2]CCC | 3.22 µM | 1.69 µM
O=S(=O)(Nc1nc2ccccc2nc1Nc1ccc2ccccc2c1)c1ccccc1 | > 100 µM | –
CN(C(=O)C12C3C4C5C3C1(C(=O)C13C6C7C8C6C1C8C73)C5C42)C(C)(C)C (centres undefined) | > 50 µM | –
CCOC(=O)Nc1nc2ccc(OC)cc2s1 | > 100 µM | > 100 µM
CCNC(=O)COc1ccc(Br)cc1Br | > 100 µM | –
CC(Oc1ccc2c(-c3ccccc3)cc(=O)oc2c1)C(=O)O (centres undefined) | > 100 µM | –
CC(C)(C)OC(=O)N(CCCCNC(=O)OCc1ccccc1)CCCNC(=O)OCc1ccccc1 | > 100 µM | –

Structure (SMILES) | TGI | GI50
Cc1ccc2c(c1)C(=O)c1nc(C)ccc1C2=O | 63.7 µM | –
C=C1C(=O)OC2C/C(C)=C/CC/C(C)=C/CCC3(COC(C)=O)OC3CC12 (centres undefined) | 30 µM | –
CN(C)CCNc1ccc(CO)c2sc3ccc(O)cc3c(=O)c12 | 14.9 µM | –
OC1(c2ccc(-c3ccccc3)cc2)c2ccccc2C2=NCCN21 (centres undefined) | > 100 µM | –
CC[C@H](Nc1ncnc2nc[nH]c12)c1nc2cccc(F)c2c(=O)n1-c1ccccc1 | 98.1 µM | 13.6 µM
CC1=Nc2c(ccc3c2C(=O)c2ccccc2C3=O)NC(c2cccc3c2CCC3)C1 (centres undefined) | > 83.6 µM | –
O=c1c2cc(F)ccc2sc2c(N3CCNCC3)nc3ccc(F)cc3c12 | 2.95 µM | 1.59 µM
Cc1ccc(S(=O)(=O)OC2C(O)C(O)OC2C(c2cc(O)c3c(c2O)C(=O)c2ccccc2C3=O)c2cc(O)c3c(c2O)C(=O)c2ccccc2C3=O)cc1 (centres undefined) | > 10 µM | –
C=CCn1c(C)nc2ccc(Nc3nc(Nc4ccc(F)cc4)nc4ccccc34)cc21 | 21.5 µM | 6.16 µM
CCCCCCCCCCCCCCCCNC(=O)C(=O)/C=C(\O)c1ccc(C)cc1 | > 10 µM | –
CC[C@@]1(O)C(=O)OCc2c1cc1n(c2=O)Cc2c-1nc1ccccc1c2/C=N\NC(=O)C1CCCN1 (some centres undefined) | > 100 µM | –
CC(C)(C)c1cc(C(O)(C(F)(F)F)C(F)(F)F)c2c(c1)C(C(F)(F)F)(C(F)(F)F)OC(C)(C(C)(C)C)N2 (centres undefined) | 40.3 µM | –
COc1ccc(S(=O)(=O)N2CCN(C(=O)c3ccc(-c4ccccc4)cc3)CC2C(=O)NO)cc1 (centres undefined) | 12.5 µM and > 100 µM | 2.97 µM and 19.9 µM
O=C1c2ccccc2C(=O)c2cc(N=Nc3c(O)ccc4ccccc34)ccc21 | > 100 µM | –
CC1CCC2(NC1)OC1CC3C4CC=C5CC(O)CCC5(C)C4CCC3(C)C1C2C (centres undefined) | 85.3 µM and > 55.5 µM | 28.3 µM and 5.83 µM
CC(C)c1cnn2c(NCc3ccccc3)cc(NC[C@H]3CCNC[C@@H]3O)nc12 | 10.2 µM and 9.81 µM | 0.637 µM and 0.494 µM
N#Cc1ccccc1C(Cl)(Cl)c1cnccn1 | > 100 µM | –
Cc1ccccc1NC(=O)c1cc(-c2ccc([N+](=O)[O-])cc2)nc(=S)[nH]1 | > 100 µM | –
Cn1c2ccccc2c2c3c(c4c5ccccc5n(C)c4c21)C(=O)NC3=O | > 100 µM | –
COC(CN(C(C)=O)C1CCC2(SCCS2)c2[nH]c3ccccc3c21)OC (centres undefined) | > 100 µM | –
CC(=O)Oc1ccc(C23c4ccccc4C2(OC(C)=O)c2cc(OC(C)=O)ccc23)cc1 (centres undefined) | 42 µM | 13.5 µM
O=C(/C=C/c1ccccc1)CSc1ncn[nH]1 | > 100 µM | –
[O-][N+](=Nc1ccccc1CO)c1ccccc1CO | > 100 µM | –
O=C1C(Br)=C(c2ccccc2)O/C1=C/C(=O)c1ccc(Br)cc1 | > 100 µM | –
COC(=O)C1Cc2cc3c(cc2C1=O)CCCC3 (centres undefined) | > 100 µM | –
COc1ccc(NC(=O)/C(=C/c2ccccc2)C(C)=O)cc1 | 24.3 µM | –

Structure (SMILES) | TGI | GI50
COc1cc(C2SCCCCCCCCCCSC(c3ccc(O)c(OC)c3)SCCCCCCCCCCS2)ccc1O (centres undefined) | > 100 µM | –
S=c1snc2n1CCN2 | > 100 µM | > 100 µM
CCOC(=O)c1cc2cc3c4c(c2oc1=O)CCCN4CCC3 | > 100 µM | –
c1ccc2c(c1)c1c(n2CCOCCN2CCCC2)CCCC1 | > 100 µM | –
c1ccc(C(NCC2CCO2)(c2ccccc2)c2ccccc2)cc1 (centres undefined) | 32.5 µM | –
Cc1nn[n-]n1.N.N.N.N.N.[Cl-].[Co+3] | > 100 µM | > 100 µM
O=C(OC1C2OC(=O)c3cc(O)c(O)c(O)c3Oc3cc4c(c(O)c3O)-c3c(cc(O)c(O)c3O)C(=O)OCC3OC(O)C(OC(=O)c5cc(O)c(O)c(O)c5Oc5cc6c(c(O)c5O)-c5c(cc(O)c(O)c5O)C(=O)OC1C(COC6=O)OC2O)C(OC(=O)c1cc(O)c(O)c(O)c1)C3OC4=O)c1cc(O)c(O)c(O)c1 (centres undefined) | 58.8 µM | –
COc1c(/C=C/C(C)(C)O)cc(C2CC(=O)c3c(O)cc(O)cc3O2)cc1CC=C(C)C (centres undefined) | 15.9 µM | –
O=C(O)C(O)C(O)C(=O)O (centres undefined) | > 100 µM | –
CCNc1cc(-c2cccc(OC(F)(F)F)c2)nc2ccc(N3CCCC3)cc12 | – | 2.75 µM
COC/C=C\COC | > 100 µM | –
O=C1c2ccccc2-[n+]2ccc3c([nH]c4ccccc43)c21 | 1.82 µM | –
O=C(O)Cc1ccc(Nc2nc3cc(C(F)(F)F)ccc3nc2C(=O)O)cc1 | > 100 µM | –
Cc1nc(N)nc2c1CCC(O)S2 (centres undefined) | 38.5 µM | 12.7 µM
Cc1ccc(/C=N/n2c(-c3ccc(C)cc3)n[nH]c2=O)cc1 | > 100 µM | –
N#CN/C(N)=N/C/N=C(\N)NC#N | > 100 µM | –
C=C(C(=O)O)[C@@H]1C[C@@H]2O[C@H]1[C@@H](O)[C@@H](C)CCCC(C)=CCC[C@@]2(C)O | > 100 µM | –
O=C(NCCN1CCOCC1)c1cn2c(ccc3sc4ccccc4c(=O)c32)n1 | > 100 µM | –
c1cc2c(s1)-c1sccc1C21OCCO1 | > 100 µM | –
COc1ccc(NC(=O)CC2SC(=Nc3ccccc3C)NC2=O)c([N+](=O)[O-])c1 (centres undefined) | > 100 µM | –
CCN1CCC(O)(c2ccc(Oc3ccc(F)cc3)cc2)C(C(=O)c2ccc(Oc3ccc(F)cc3)cc2)C1 (centres undefined) | 29.7 µM | –
CSc1ccc(-c2cc(-c3nc4ccccc4[nH]3)no2)cc1 | > 100 µM | –
COC(=O)c1cc2c3ccccc3n3c(=O)c4cc5ccc(N(S(=O)(=O)c6ccc(C)cc6)S(=O)(=O)c6ccc(C)cc6)cc5nc4c(n1)c23 | > 100 µM | > 100 µM
